Source: patent US8785135B2, “Mutant G-protein coupled receptors and methods for selecting them” (Heptares Therapeutics Limited, priority 2007, dated 2014)
Counter-ions that a name gives are not always drawn. Like-named read-outs stand apart in the source and are kept apart here.

What was measured:
βAR34-424 [1] = molecular target: T1, βAR34-424 (Meleagris gallopavo, UniProt P07700, C116L)
Experimental: FIG. 8 Saturation binding assays of membranes of βAR34-424 and βAR-m23. Binding assays were performed as described in “Methods” using [^3H]-dihydroalprenolol (DHA) as radioligand; βAR34-424 (a) and βAR-m23 (b). Scatchard plots are shown as insets along with the corresponding values for Bmax and KD. Data points are from duplicates of two independent experiments for each protein.
[…] . Saturation binding experiments to membranes using the antagonist. […] . This is consistent with the observation that none of the mutations in βAR-m23 correspond with amino acids believed to be implicated in ligand binding. […] . From a crystallisation perspective, this is an added bonus to thermostabilisation, because it is essential to have a conformationally homogeneous protein population for the production of diffraction-quality crystals.
For large-scale membrane preparations, 2 L and 6 L of E. coli culture of βAR and Mut23, respectively, were grown as described above. Cells were harvested by centrifugation at 5,000×g for 20 min, frozen in liquid nitrogen and stored at −80° C. […] The protein concentration was determined by the amido black method. […]
Non-specific binding was determined in the presence of 1 μM of s-propranolol. […]

[2] = Stability of βAR-m23 and βAR34-424 in different detergents; type: physicochemical
Experimental: FIG. 6 Stability of βAR-m23 and βAR34-424 in five different detergents. […] Assays were carried out as described in the Methods and the Tm is shown at the intersection between the curves and the discontinuous line. Results are from duplicate measurements in a representative experiment performed in parallel.
All of the thermostability assays used to derive βAR-m23 were performed on receptors solubilised in DDM. The aim of the thermostabilisation process was to produce a receptor that is ideal for crystallography, which means being stable in a variety of different detergents and not just DDM. […] In contrast, functional βAR-m23 was still present in all detergents and the Tm could be determined. […]
Single point binding assays contained 20 mM Tris pH 8, 0.4 M NaCl, 1 mM EDTA, 0.1% DDM (or corresponding detergent) with 50 nM [^3H]-DHA and 20-100 μg membrane protein in a final volume of 120 μl; equilibration was for 1 h at 4° C. Thermostability was assessed by incubating the binding assay mix, with or without [^3H]-DHA at the specified temperature for 30 minutes; reactions were placed on ice and [^3H]-DHA added as necessary and equilibrated for a further hour. […] Non-specific binding was determined in the presence of 1 μM of s-propranolol. […] Radioactivity was counted on a Beckman LS6000 liquid scintillation counter and data were analyzed by nonlinear regression using Prism software (GraphPad).

[3] = 0.5 h
βAR34-424 [4] = molecular target: T1, βAR34-424; design: species or system turkey; settings: competition with [3H]-DHA at 3 x KD; read-out: EC50 for ligand binding

For “1-[4,6-propyl-^3H]-dihydroalprenolol [[^3H]-dihydroalprenolol]”, the Kd (βAR34-424 [1]; membranes, n=2) was 2.8 ± 0.1 nM and the Kd (βAR34-424 [1]; semipurified receptor) was 3.7 nM.

In the case of “βAR34-424: truncated turkey β1 adrenergic receptor, residues 34-424, C116L, C-terminal 10-histidine tag; parent receptor”, the “predicted Tm” value ([2]; NG) is reported as “about 5 °C”, the “active receptor after detergent exchange” value ([2]; resin washed with OG, NG or LDAO) is reported as “no active receptors” and the “antagonist binding remaining after heating, compared to unheated control” value [3] is reported as “approximately 50%”.

In the case of `C=CCc1ccccc1OC[C@@H](O)CNC(C)C` [alprenolol, (−) alprenolol tartrate salt], the EC50 (βAR34-424 [4]) is reported as 78 nM.
